Out of some 310,000 compounds screened, about 14,000 (4.5%) showed an effect of 50% or more. Effects have a minus sign here. This is one part of the list.
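Note: peak tail current of the secondary pulse compared with the same well before compound.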

The target in this experiment is human ether-à-go-go-related gene (hERG) potassium channel (human, UniProt Q12809). The experiment is described as follows: primary screen, population patch clamp on CHO cells stably expressing hERG.
human ether-à-go-go-related gene (hERG) potassium channel, sequence (Q12809 whole entry, looked up): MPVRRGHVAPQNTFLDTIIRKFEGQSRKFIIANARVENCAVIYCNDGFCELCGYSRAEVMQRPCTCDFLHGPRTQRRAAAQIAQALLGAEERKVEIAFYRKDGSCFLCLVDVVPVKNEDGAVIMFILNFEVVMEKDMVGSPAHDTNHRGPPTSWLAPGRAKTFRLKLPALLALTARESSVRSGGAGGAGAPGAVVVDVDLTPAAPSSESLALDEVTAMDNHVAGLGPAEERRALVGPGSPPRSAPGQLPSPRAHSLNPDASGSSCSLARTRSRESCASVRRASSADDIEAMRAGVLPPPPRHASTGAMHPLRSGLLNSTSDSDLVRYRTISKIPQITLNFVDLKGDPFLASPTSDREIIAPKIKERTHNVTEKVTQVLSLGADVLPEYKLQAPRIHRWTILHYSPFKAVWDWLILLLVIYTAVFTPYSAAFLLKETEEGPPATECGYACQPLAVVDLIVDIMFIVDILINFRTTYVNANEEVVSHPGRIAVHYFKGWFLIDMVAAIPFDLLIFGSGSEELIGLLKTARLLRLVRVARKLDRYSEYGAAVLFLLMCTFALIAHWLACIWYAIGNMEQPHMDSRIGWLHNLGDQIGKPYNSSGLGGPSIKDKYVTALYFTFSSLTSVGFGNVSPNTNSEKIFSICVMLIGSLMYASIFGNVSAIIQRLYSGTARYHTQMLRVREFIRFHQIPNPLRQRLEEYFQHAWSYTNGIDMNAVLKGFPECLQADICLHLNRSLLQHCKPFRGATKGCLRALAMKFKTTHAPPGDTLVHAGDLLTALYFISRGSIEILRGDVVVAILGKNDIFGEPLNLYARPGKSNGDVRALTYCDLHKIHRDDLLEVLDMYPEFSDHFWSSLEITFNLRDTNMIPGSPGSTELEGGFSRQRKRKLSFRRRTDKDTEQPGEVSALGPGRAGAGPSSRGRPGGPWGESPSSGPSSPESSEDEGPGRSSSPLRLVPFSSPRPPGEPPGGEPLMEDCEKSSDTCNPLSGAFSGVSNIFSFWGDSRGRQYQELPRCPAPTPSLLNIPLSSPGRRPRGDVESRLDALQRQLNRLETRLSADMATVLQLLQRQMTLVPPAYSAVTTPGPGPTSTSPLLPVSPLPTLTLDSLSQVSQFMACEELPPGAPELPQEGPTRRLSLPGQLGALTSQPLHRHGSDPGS
On to `COc1ccc(OC)c2sc(N(CCCN(C)C)C(=O)c3ccc(S(=O)(=O)N4CCc5ccccc5C4)cc3)nc12.Cl`, for which the “hERG current change (%, negative = inhibition) at 10uM” value is reported as -8.54%.

Consider `COc1ccc(/C=N/NC(=O)c2ccccc2O)cc1CSc1ccccn1`, for which the “hERG current change (%, negative = inhibition) at 10uM” value is given as -1.66%.

Take `COc1ccc(/C=N/NC(=S)Nc2cc(C(F)(F)F)ccc2Cl)cc1`: the “hERG current change (%, negative = inhibition) at 10uM” value came out at 12.3%.

For `COc1ccc(CCN(CC(=O)NC2CCCC2)C(=O)Cn2nnc(-c3ccc(C)o3)n2)cc1OC`, the “hERG current change (%, negative = inhibition) at 10uM” value was -20.6%.

On to `COc1ccccc1NC(=O)c1ccc(NC(=O)COC(=O)CCC2CCCC2)cc1`, for which the “hERG current change (%, negative = inhibition) at 10uM” value is reported as 26%.

On to `CCc1ccc(OCC(=O)c2c(O)c3ccccc3oc2=O)cc1`, for which the “hERG current change (%, negative = inhibition) at 10uM” value worked out at 9.48%.

Take `Cc1ccccc1NC(=O)NNC(=O)CCc1ccccc1`: the “hERG current change (%, negative = inhibition) at 10uM” value is listed as 7.34%.

`CCOC(=O)c1ccc(NC(=O)CN(c2ccc(C)cc2)S(=O)(=O)c2c(C)nn(C)c2C)cc1`: the “hERG current change (%, negative = inhibition) at 10uM” value was -6.08%.

On to `O=C(NCc1ccc2c(c1)OCO2)C1CCC(CNS(=O)(=O)c2ccc(Cl)cc2)CC1` (stereo not shown), for which the “hERG current change (%, negative = inhibition) at 10uM” value was -6.18%.

For `COc1cc2c(cc1OC)-c1c(OC)c(OC)cc3c1[C@H](C2)[N+](C)(C)CC3.[I-]`, the “hERG current change (%, negative = inhibition) at 10uM” value is -2.09%.

As to `CCn1c(C)cc(C(=O)CN2C(=O)c3ccccc3S2(=O)=O)c1C`, the “hERG current change (%, negative = inhibition) at 10uM” value amounted to 14%.

Consider `CSCCC(NS(=O)(=O)c1cc(C(=O)O)ccc1Cl)C(=O)O` (stereo not shown), for which the “hERG current change (%, negative = inhibition) at 10uM” value worked out at 45%.

As for `COc1ccc(/C=N/NC(=O)c2cc(C34CC5CC(CC(C5)C3)C4)[nH]n2)cc1OC`, the “hERG current change (%, negative = inhibition) at 10uM” value is on record as -1.14%.

For the compound `COc1ccccc1OCC(=O)Nc1nc(-c2ccc(S(=O)(=O)N3CCOCC3)cc2)cs1`, the “hERG current change (%, negative = inhibition) at 10uM” value stood at 16.5%.

Consider `COc1cccc(C(=O)CSc2nnc(-c3cc(OC)cc(OC)c3)o2)c1`, for which the “hERG current change (%, negative = inhibition) at 10uM” value was -8.99%.

As to `N#Cc1c(Oc2ccc3ccccc3c2)sc(C(=O)c2ccccc2)c1N`, the “hERG current change (%, negative = inhibition) at 10uM” value came to 11.1%.

As to `CCC1COCCS(=O)(=O)N1Cc1ccc(Cl)cc1` (stereo not shown), the “hERG current change (%, negative = inhibition) at 10uM” value is listed as -8.92%.

Consider `Cc1ccc(C(=O)N2CCN(c3ccccn3)CC2)cc1`, for which the “hERG current change (%, negative = inhibition) at 10uM” value is -14.3%.

For the compound `CCc1ccc(CNCCc2ccc(F)cc2)cc1`, the “hERG current change (%, negative = inhibition) at 10uM” value was -72.8%.

With `CCCCC1=NN2CCS(=O)(=O)N=C2S1`, the “hERG current change (%, negative = inhibition) at 10uM” value is given as 8.61%.

With `CC(C)CC(NC(=O)c1ccccc1)C(=O)N/N=C/c1ccco1` (stereo not shown), the “hERG current change (%, negative = inhibition) at 10uM” value is -2.87%.

Consider `COCCn1c(SCC(=O)Nc2cc(OC)ccc2OC)nc2c(c1=O)SC(C)C2` (stereo not shown), for which the “hERG current change (%, negative = inhibition) at 10uM” value is reported as -18.5%.

As to `O=C(COC(=O)Cc1ccc(F)cc1)NC(=O)c1ccccc1`, the “hERG current change (%, negative = inhibition) at 10uM” value turned out to be 5.1%.

`COc1ccc(/C=C2\Oc3cc(OCC(=O)N4CC(O)C[C@H]4C(=O)O)ccc3C2=O)cc1OC` (stereo partly shown): the “hERG current change (%, negative = inhibition) at 10uM” value was found to be 6.83%.

As for `O=C(O)c1cc([N+](=O)[O-])c(Nc2cccc3ccccc23)c([N+](=O)[O-])c1`, the “hERG current change (%, negative = inhibition) at 10uM” value is on record as 3.66%.

With `CC1CCCCN1C(=O)Cn1c(=O)n(C2CCCCC2)c(=O)c2ccccc21` (stereo not shown), the “hERG current change (%, negative = inhibition) at 10uM” value is -7.29%.

In the case of `COC(=O)Oc1nsnc1N1CCOCC1`, the “hERG current change (%, negative = inhibition) at 10uM” value was found to be 14.9%.

Turning to `S=C(NCc1ccccc1)NNc1ccccc1`, the “hERG current change (%, negative = inhibition) at 10uM” value is 4.63%.

Consider `CCCCc1cc(=O)oc2cc(C)cc(OCC(=O)Nc3cccnc3)c12`, for which the “hERG current change (%, negative = inhibition) at 10uM” value turned out to be 26.7%.

For `C/C=C(\C)C(=O)N[C@@H](c1ccccc1)[C@@H](O)C(=O)O[C@H]1C[C@@]2(O)[C@@H](OC(=O)c3ccccc3)C3[C@](C)(C(=O)[C@H](OC(C)=O)C(=C1C)C2(C)C)[C@@H](O)C[C@H]1OC[C@@]31OC(C)=O` (stereo partly shown), the “hERG current change (%, negative = inhibition) at 10uM” value was -5.14%.

`COc1ccc(OC)c(N(CC(=O)NCCSC2CCCCC2)S(=O)(=O)c2ccccc2)c1`: the “hERG current change (%, negative = inhibition) at 10uM” value came to 16%.

For `O=C(O)Cc1coc2ccc3ccccc3c12`, the “hERG current change (%, negative = inhibition) at 10uM” value is recorded as 6.44%.

With `CS(=O)(=O)N1CCc2ccccc2C1`, the “hERG current change (%, negative = inhibition) at 10uM” value amounted to 0.516%.

As to `CCOCCCNC(=O)c1ccc2c(=O)n(CCCOCC)c(=S)[nH]c2c1`, the “hERG current change (%, negative = inhibition) at 10uM” value was 2.91%.

Regarding `COc1ccc2cc1Oc1ccc(cc1)C[C@H]1c3cc(c(OC)cc3CCN1C)Oc1c(OC)c(OC)cc3c1[C@H](C2)N(C)CC3`, the “hERG current change (%, negative = inhibition) at 10uM” value is given as -37.4%.

Take `COc1ccc(N(CC(=O)NCCc2ccc(S(N)(=O)=O)cc2)S(=O)(=O)c2c(C)noc2C)cc1`: the “hERG current change (%, negative = inhibition) at 10uM” value was found to be 10.6%.

As to `CCCc1c(C)[nH]c2nc3ccccc3n2c1=O`, the “hERG current change (%, negative = inhibition) at 10uM” value is 12.4%.

For the compound `CCN(CC(=O)NCc1cccs1)C(=O)c1ccc(S(=O)(=O)N(CC)c2ccccc2)cc1`, the “hERG current change (%, negative = inhibition) at 10uM” value was -61.4%.

`Cc1ccc(NC(=O)c2cc3c(s2)CCC3)cc1S(=O)(=O)N1CCOCC1`: the “hERG current change (%, negative = inhibition) at 10uM” value was 9.28%.

On to `COc1ccc(Oc2nnnn2-c2ccccc2)cc1`, for which the “hERG current change (%, negative = inhibition) at 10uM” value is reported as -16.6%.

For `COc1cc(/C=C/C(=O)O)cc(S(=O)(=O)N2CCCc3ccccc32)c1OC`, the “hERG current change (%, negative = inhibition) at 10uM” value was determined as 10.7%.

As for `Cc1ccccc1NC(=O)C1CCN(C(=O)N2CCOc3ccccc32)CC1`, the “hERG current change (%, negative = inhibition) at 10uM” value is -8.57%.

For `CCCCCCCCCc1nc2sc3c(c2c(=O)n1NC(=O)c1ccc([N+](=O)[O-])cc1)CC(C)(C)OC3`, the “hERG current change (%, negative = inhibition) at 10uM” value is -35.9%.

The record behind these values is PMC4336329 (PLoS ONE, 2015).
